Reference: the BET-seq Pho4 binding data (Le et al. 2018)
The other results are listed elsewhere or left out. These are noisy estimates, calculated here from bound and input reads.

Molecular target: T1, Pho4 (S. cerevisiae) (UniProt P07270)
T1 sequence: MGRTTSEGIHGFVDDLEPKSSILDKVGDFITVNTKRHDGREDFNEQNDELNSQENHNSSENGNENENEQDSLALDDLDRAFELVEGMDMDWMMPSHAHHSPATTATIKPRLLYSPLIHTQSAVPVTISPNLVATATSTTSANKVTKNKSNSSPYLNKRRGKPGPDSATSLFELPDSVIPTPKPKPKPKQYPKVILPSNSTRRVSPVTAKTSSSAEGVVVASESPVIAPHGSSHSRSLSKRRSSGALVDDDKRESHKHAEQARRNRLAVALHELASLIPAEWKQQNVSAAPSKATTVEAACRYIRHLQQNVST
Assay: relative binding free energy (BET-seq); higher = weaker binding
Conditions: reference: library average

Row | Sequence | relative binding free energy [kcal/mol]
1 | TTTTCCACGTGATATA | 0.14
2 | GTATACACGTGGCGAG | 0.06
3 | TGGTTCACGTGAATGG | 0.4
4 | TTATGCACGTGCGTCG | -0.11
5 | GCATTCACGTGTTAGG | 0.16
6 | AGGTTCACGTGAGGCA | 0.33
7 | AGTTACACGTGCATAT | 0.16
8 | GAGTGCACGTGTGGAG | -0.05
9 | TTAAACACGTGTGAGA | 0.1
10 | GGGTCCACGTGAAGTG | 0.19
11 | GCGTTCACGTGAGAGG | 0.48
12 | AGTTTCACGTGGACGG | 0.18
13 | GATTACACGTGATATG | 0.22
14 | TTATTCACGTGTTGAC | 0.31
15 | TACTACACGTGGGTTT | -0.05
16 | TGTTACACGTGAATAG | 0.22
17 | TTTAGCACGTGAGTAT | 0.08
18 | GTTTGCACGTGATAAA | 0.21
19 | GTTAGCACGTGGGATC | 0.04
20 | ATCGGCACGTGAGTGG | 0
21 | TTGTTCACGTGTGGCC | 0.26

Row | Sequence | relative binding free energy [kcal/mol]
22 | TGGGCCACGTGAAGAG | 0.04
23 | AAGTACACGTGTAGAG | 0.05
24 | TTATTCACGTGAAGGG | 0.36
25 | TGTCGCACGTGAGGCG | 0.22
26 | TTGTCCACGTGGTAGG | 0
27 | GCGGACACGTGGGCGT | 0.02
28 | AGAAGCACGTGTGGAG | 0.05
29 | GTCTTCACGTGATAGT | 0.34
30 | TTGTTCACGTGCTAGA | 0.21
31 | GATTTCACGTGGGGAA | 0.2
32 | TGCTGCACGTGAAGTT | 0.2
33 | CGTTGCACGTGGTGGA | -0.1
34 | AAGTTCACGTGTGTAA | 0.25
35 | GGGTACACGTGAGTAT | 0.33
36 | AAATCCACGTGTGTGG | 0.25
37 | GCGATCACGTGTTTTT | 0.36
38 | GTAATCACGTGAGGTT | 0.27
39 | TATGTCACGTGATGAT | 0.11
40 | TAACGCACGTGTGTAG | -0.02
41 | GTAGGCACGTGTCGTT | -0.1
42 | GGTTTCACGTGCGAGT | 0.38

Row | Sequence | relative binding free energy [kcal/mol]
43 | TGAATCACGTGTTAAG | 0.11
44 | ACAGTCACGTGGAAGG | 0.15
45 | TGTTTCACGTGTCGGT | 0.37
46 | ATTGTCACGTGTGGTG | 0.23
47 | AGACGCACGTGATGTG | -0.12
48 | GTGGACACGTGATCGG | 0
49 | TTTTGCACGTGGTCGC | -0.19
50 | ATTTGCACGTGAGCTG | 0.14
51 | AATGACACGTGATGTA | 0.04
52 | CGGGCCACGTGGGGCG | -0.24
53 | GAGGACACGTGTATGG | -0.09
54 | GGGGGCACGTGCCAAG | -0.18
55 | TGTTGCACGTGGTGAT | 0.03
56 | ATCTGCACGTGTTGAT | 0.06
57 | ATTATCACGTGTTTAC | 0.14
58 | GGGAGCACGTGAGTAG | 0.18
59 | AGAAACACGTGGAAGT | 0.24
60 | ATTAACACGTGATATT | 0.1
61 | AGGAACACGTGGCTTT | 0.12
62 | GGTGTCACGTGTTGTC | 0.18
63 | GTGTGCACGTGCGCAT | -0.1
